PubChem BioAssay AID904 (National Center for Advancing Translational Sciences (NCATS), 2007)
In all, about 55,000 compounds went through this assay and about 530 (0.96%) were called active. The inconclusive results got no clear call from the source; some entries with a clear call stand among them for comparison. The call rests on the fitted dose curve; in most records, active means well fitted cell-killing curve with a large enough effect; inconclusive means small, poorly fitted or top-dose-only effect; inactive means no such curve, though single readings can be large or run the other way. Potencies of inconclusive entries are doubtful fits and often do not repeat.

assay: qHTS Screen for Compounds that Selectively Target Cancer Cells with p53 Mutations: Cytotoxicity of p53 Null Cells at the Nonpermissive Temperature; settings: H1299 p53-null (neo) cells, 39C, ATPlite viability, 24 h; series mostly up to 46.1 µM; activity, negative = cell killing: at the top concentration; further: nearly all actives have a fitted effect of over 50% in size;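 on activity, negative = cell killing: 0% = DMSO only and -100% = full killing by 100 µM tamoxifen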
Procedure, shortened: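 Following overnight plating at 37C (600 cells/well), H1299-neo or H1299-p53A138V cells are dosed up to 46 uM. Incubation lasts 24 hr at 39C before ATP detection.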
Potency means the concentration at half of the fitted maximal effect; tags describe the fitted curve by direction and shape.

Row | Compound | Potency | activity, negative = cell killing
1 | O=C(NCc1ccccc1)N1CCc2c(sc3c2CCCC3)C1c1ccccc1 (stereo not given) | inconclusive: 0.794 µM [cytotoxic, full curve, poor fit] | 
2 | CN(C)c1cccc(C(=O)Nc2nc3ccc(S(=O)(=O)NC(C)(C)C)cc3s2)c1 |  | inactive: 37.8%
3 | CC(C)c1ccc(Cc2cn3cc(-c4cc5ccccc5oc4=O)nc3s2)cc1 | inconclusive: 0.251 µM [cytotoxic, full curve, poor fit] | 
4 | O=C(Nc1ccc(Br)cc1C(=O)c1ccccc1)c1ccccc1 |  | inactive: 3.31%
5 | CCN(c1ccccc1)S(=O)(=O)c1ccc(NC(=O)c2cc(=O)c3ccccc3o2)cc1 | inconclusive: 5.62 µM [cytotoxic, partial curve] | 
6 | COc1ccc(NC(=O)c2ccco2)cc1NC(=O)COc1cccc(C)c1C | inconclusive: 0.398 µM [cytotoxic, single point] | 
7 | COc1ccc(CN2CCN(c3ncnc4sc5c(c34)CCCC5)CC2)cc1F |  | inactive: 53.1%
8 | CCCOC(=O)c1c(C)oc2c1cc(NS(=O)(=O)c1ccc(OCC)cc1)c1ccccc12 | inconclusive: 1.78 µM [cytotoxic, partial curve] | 
9 | O=C(Cn1c(=O)n(Cc2ccccc2)c(=O)c2sc3ccccc3c21)NCc1ccccc1Cl | inconclusive: 12.6 µM [cytotoxic, partial curve] | 
10 | Cc1c(Cl)cccc1NC(=O)CN1C(=O)C(C)N=C(c2ccccc2)c2ccccc21 (stereo not given) | inconclusive: 0.0141 µM [cytotoxic, full curve, poor fit] | 
11 | COc1ccc(Nc2cc(C)c3cc(NC(=O)c4ccccc4Cl)ccc3n2)cc1 | inconclusive: 25.1 µM [cytotoxic, partial curve] | 
12 | Cc1ccc(NC(=O)CSc2nc(-c3ccco3)cc(C(F)(F)F)n2)c(C)c1 | inconclusive: 0.251 µM [cytotoxic, full curve, poor fit] | 
13 | COc1cc(OC)cc(C(=O)Nc2nc(-c3nnn(-c4ccc(C)cc4)c3C)ns2)c1 | inconclusive: 10 µM [cytotoxic, single point] | 
14 | CN1C(=O)c2ccccc2Sc2ccc(NC(=O)N3CCN(c4ccccc4)CC3)cc21 |  | inactive: 53.5%
15 | CCCC12CN3CC(C)(CN(C1)C3c1ccccn1)C2=O (stereo not given) | inconclusive: 1.26 µM [cytotoxic, full curve, poor fit] | 
16 | Cc1oc(-c2ccccc2Cl)nc1CN1C(=O)CN=C(c2ccccc2)c2cc(Cl)ccc21 |  | inactive: -8.72%
17 | COc1ccc(NC(=O)CCc2nc(C3=CCN(Cc4cccc(Cl)c4)CC3)no2)cc1OC |  | inactive: 17%
18 | Cc1ccc(C(=O)COC(=O)c2cccc(NC(=O)c3ccc(Br)cc3)c2)cc1 | inconclusive: 3.98 µM [cytotoxic, partial curve] | 
19 | Nc1c(C(=O)Nc2ccc(OC(F)(F)F)cc2)sc2nc3c(cc12)N1CCC3CC1 | inconclusive: 12.6 µM [cytotoxic, single point] | 
20 | Cc1nnc(N2CCC(C(=O)NCc3ccc(N(C)C)cc3)CC2)c2nn(-c3ccccc3)c(C)c12 | inconclusive: 0.1 µM [cytotoxic, full curve, poor fit] | 

Row | Compound | Potency | activity, negative = cell killing
21 | O=C(COc1ccccc1Cl)Nc1ccc2nc(SCC(=O)N3CCCC3)sc2c1 | inconclusive: 1.26 µM [cytotoxic, full curve, poor fit] | 
22 | CCc1cccc(NC(=O)c2ccc(NC(=O)N3CCSc4ncccc43)cc2)c1 | inconclusive: 10 µM [cytotoxic, partial curve, poor fit] | 
23 | CC(=O)c1cccc(NC(=O)c2cc3c(s2)-c2c(C)cccc2OC3)c1 | inconclusive: 15.8 µM [cytotoxic, single point] | 
24 | COc1ccccc1NC(=O)Cn1c(=O)n(-c2cccc(Cl)c2)c(=O)c2sc3ccccc3c21 | inconclusive: 31.6 µM [cytotoxic, single point] | 
25 | CCc1ccc(-n2nc(C)c3c2NC(=O)CSC3c2ccc(OC)cc2OC)cc1 (stereo not given) | inconclusive: 11.2 µM [cytotoxic, partial curve] | 
26 | Cc1oc(-c2ccccc2F)nc1CS(=O)(=O)CC(=O)N1CCN(c2cccc(C(F)(F)F)c2)CC1 | inconclusive: 0.005 µM [cytotoxic, full curve] | 
27 | Cc1oc(-c2cccc(Cl)c2)nc1CN1CCC(C(=O)NCCCN2CCN(c3cccc(Cl)c3)CC2)CC1 | inconclusive: 20 µM [cytotoxic, single point] | 
28 | CCOC(=O)c1ccc(N2C(=O)c3n[nH]c(-c4cccs4)c3C2c2ccc(C(C)(C)C)cc2)cc1 (stereo not given) | inconclusive: 31.6 µM [cytotoxic, single point] | 
29 | CCOc1ccc(-c2cc(C)n3nc(C(=O)Nc4ccc(C)c(C)c4)cc3n2)cc1 | inconclusive: 1.58 µM [cytotoxic, partial curve] | 
30 | CCOc1ccc(C(NC(=O)c2cc(OC)c(OC)c(OC)c2)c2cc(Cl)c3cccnc3c2O)cc1 (stereo not given) | active: 3.55 µM | 
31 | Cc1oc2cc3oc(=O)c(CCC(=O)N4CCCCC4)c(C)c3cc2c1C |  | inactive: 5.37%
32 | CCOc1ccc(CN(CCc2ccc3c(c2)OCO3)Cc2cccc(Br)c2)cc1 |  | inactive: -6.51%
33 | CCOC(=O)c1ccc(N2C(=O)c3[nH]nc(-c4ccccc4)c3C2c2ccc(C(C)C)cc2)cc1 (stereo not given) | inconclusive: 10 µM [cytotoxic, single point] | 
34 | O=C(Nc1nc2ccccc2s1)c1cccn(Cc2ccccc2)c1=O |  | inactive: 7.78%
35 | CCN(CC)S(=O)(=O)c1ccc2c(c1)c(=O)c(C(=O)NCc1ccccc1OC)cn2C | inconclusive: 5.01 µM [cytotoxic, full curve] | 
36 | Cc1ccc(-n2c(/C=C/c3cccc(C(F)(F)F)c3)nc3ccccc3c2=O)cc1 |  | inactive: -19.2%
37 | Cc1ccccc1-n1c(/C=C/c2ccccc2F)nc2ccccc2c1=O | inconclusive: 0.0316 µM [cytotoxic, full curve, poor fit] | 
38 | COc1ccc(NC(=O)c2cccn(Cc3ccc(Cl)cc3)c2=O)c(OC)c1 |  | inactive: -8.78%
39 | CCOc1ccc(/C=C/c2nc(C#N)c(NCc3ccccc3)o2)cc1 | inconclusive: 0.316 µM [cytotoxic, full curve] | 
40 | Cc1ccc(-n2nc3ccc(NC(=O)COc4ccccc4C)cc3n2)cc1 | inconclusive: 0.126 µM [cytotoxic, partial curve] | 
